Experimental data from PMC6987189, “Native aggregation is a common feature among triosephosphate isomerases of different species” (Scientific Reports, 2020).
Where “and” joins values, the source holds several entries; their conditions need not be identical. Identical values can stand only once.

B1: Homo sapiens triosephosphate isomerase with histidine tag (enzyme)
chain: not shown
notes: triosephosphate isomerase (TIM), Homo sapiens; gene cloned into pET-3aHIS; Tag of 6 histidines from the vector pET-3aHIS; also called HsTIM-6H; HsTIMHIS; source: E. coli Bl21 (DE3)-p-Lys S, purified (ammonium sulphate, Butyl-650M, Source 15Q)
B2: Homo sapiens triosephosphate isomerase (enzyme)
chain: not shown
notes: triosephosphate isomerase (TIM), Homo sapiens; gene cloned into pET-3aHIS; also called HsTIM; Hs; source: E. coli Bl21 (DE3)-p-Lys S, purified (ammonium sulphate, Butyl-650M, Source 15Q)

Biological target: the molecule itself
Assay: native gel or EMSA; clear native electrophoresis (CN-PAGE), normal polarity (cathode-anode), 4-10% gradient gels, HEPES/imidazole pH 7.0 (40.0/15.3, 88.9/34.0 or 133.2/50 mM in the gel), 150 V, 4 °C, 5 h, ten micrograms of purified enzyme; masses from ferritin and albumin markers, means of the gel conditions; also after 10 mM DTT; dimers to higher aggregates

Protein	stoichiometry N
B1	17 dimers in the aggregate and 11.5 dimers in the aggregate and 9 dimers in the aggregate and 7.5 dimers in the aggregate
B2	16 dimers in the aggregate and 11 dimers in the aggregate and 8.5 dimers in the aggregate and 7.5 dimers in the aggregate
